# PubChem BioAssay AID588591 (National Center for Advancing Translational Sciences (NCATS), 2011)
# In all, about 390,000 compounds went through this assay and about 4,700 (1.2%) were called active. Inconclusive means that the source gave no clear call. Such entries were picked first, then a sample of the others. The call rests on the fitted dose curve; in most records, active means well fitted inhibition curve with a large enough effect; inconclusive means small, poorly fitted or top-dose-only effect, or another doubt; inactive means no such curve, though single readings can be large or run the other way. Where the call is inconclusive, the potency comes from a doubtful curve fit.
# Target: DNA polymerase eta (Homo sapiens) (UniProt Q9Y253)
# UniProt Q9Y253, sequence (Q9Y253 whole entry, looked up): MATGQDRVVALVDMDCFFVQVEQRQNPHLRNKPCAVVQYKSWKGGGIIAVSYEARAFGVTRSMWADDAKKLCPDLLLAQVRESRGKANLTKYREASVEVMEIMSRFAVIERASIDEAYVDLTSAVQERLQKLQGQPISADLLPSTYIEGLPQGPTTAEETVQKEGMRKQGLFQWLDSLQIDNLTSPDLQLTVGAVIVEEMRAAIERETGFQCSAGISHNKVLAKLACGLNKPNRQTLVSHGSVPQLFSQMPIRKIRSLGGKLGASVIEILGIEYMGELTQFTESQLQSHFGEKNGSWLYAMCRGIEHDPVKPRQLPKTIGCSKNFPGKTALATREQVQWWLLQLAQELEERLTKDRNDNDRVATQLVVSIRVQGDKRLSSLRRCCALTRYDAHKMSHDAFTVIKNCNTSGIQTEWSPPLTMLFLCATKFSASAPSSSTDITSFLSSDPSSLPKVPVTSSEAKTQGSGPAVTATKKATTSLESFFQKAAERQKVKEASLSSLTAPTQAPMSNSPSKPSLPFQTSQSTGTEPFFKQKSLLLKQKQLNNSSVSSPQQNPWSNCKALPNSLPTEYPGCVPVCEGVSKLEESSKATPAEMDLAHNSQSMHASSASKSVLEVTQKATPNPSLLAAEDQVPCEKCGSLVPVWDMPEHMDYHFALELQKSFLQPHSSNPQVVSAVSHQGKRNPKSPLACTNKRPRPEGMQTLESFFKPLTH
# Experiment: qHTS for Inhibitors of Polymerase Eta
# Conditions: recombinant Pol eta, fluorescent DNA replication assay; series mostly up to 114 µM; activity change, negative = inhibition: at the top concentration
# Method in brief: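 Pol eta (10 nM) was preincubated with compounds for 15 min at room temperature, after which fluorescent replication substrate (50 nM final) was added to start the reaction. Fluorescence was read kinetically at 0 and 10 min.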
# On the % scale 0 is the no-effect control and ±100 the full control effect; potency means the concentration at half of the fitted maximal effect; tags describe the fitted curve by direction and shape.
Structure (SMILES),Potency,"activity change, negative = inhibition"
NS(=O)(=O)c1ccc(NC(=O)CN2CCN(S(=O)(=O)c3cccs3)CC2)cc1,"inconclusive: 15.8 µM [inhibitor, partial curve]",
CN(C)C(CNC(=O)c1cc(-c2ccco2)nc2ccccc12)c1ccccc1 (stereo unspecified),active: 11.2 µM,
Cc1cc(N=Nc2ccccc2C(=O)O)c(C)c(C)c1O,,inactive: -9.41%
Cc1cccc(Nc2nn3c(=O)c4ccccc4nc3s2)c1,"inconclusive: 2.51 µM [inhibitor, full curve, poor fit]",
Cc1ccc(C(C)C)c(OCC(=O)NNC(=O)Cc2ccc(S(=O)(=O)N3CCOCC3)s2)c1,"inconclusive: 44.7 µM [inhibitor, partial curve, poor fit]",
CCN(CC)c1ccc(Nc2nc(N3CCOCC3)c3ccccc3n2)cc1,,inactive: -1.88%
COc1ccc(N2CCN(S(=O)(=O)c3ccc(-n4cnnn4)c(C)c3)CC2)cc1,active: 31.6 µM,
COc1ccccc1CCNC(=O)C(=O)NCC(c1cccs1)S(=O)(=O)c1ccc(C)cc1 (stereo unspecified),,inactive: -5.12%
Cc1cc2c(c(=O)o1)C1(C(=O)N(CC(=O)O)c3ccccc31)C(C#N)=C(N)O2 (stereo unspecified),active: 20 µM,
O=C(Nc1ccc(-c2noc(CCc3ccccc3)n2)cc1)c1cccnc1,"inconclusive: 3.55 µM [inhibitor, full curve]",
Cc1ccccc1NS(=O)(=O)c1ccc2[nH]cc(C(=O)NC(C)c3ccccc3)c(=O)c2c1 (stereo unspecified),active: 25.1 µM,
Cc1cc(C)c2c(=O)n(CC(=O)N3CCC(N4CCCCC4)CC3)sc2n1,,inactive: -14%
O=C(O)CCC1OC(=O)C(O)=C1c1ccccc1 (stereo unspecified),"inconclusive: 28.2 µM [inhibitor, single point]",
CCOC(=O)c1c(-c2ccccc2Cl)csc1NC(=O)CSc1nc(C)cc(=O)[nH]1,"inconclusive: 39.8 µM [inhibitor, single point]",
O=C1Nc2cc(C(=O)NCCCN3CCCC3)ccc2S/C1=C/c1ccccc1F,"inconclusive: 56.2 µM [inhibitor, partial curve, poor fit]",
CCOC(=O)C1CCN(c2cc3c(cc2NC(=O)c2ccccc2)n(C)c(=O)n3C)CC1,,inactive: -10.2%
Cc1cccc(C(=O)OCC(=O)c2ccc(CC(=O)N3CCOCC3)s2)c1C,active: 10 µM,
CCc1cccc2c(/C=N/NC(=O)c3cccc(S(=O)(=O)Nc4ccccc4Cl)c3)c[nH]c12,"inconclusive: 39.8 µM [inhibitor, partial curve, poor fit]",
CC(=O)Nc1ccc(S(=O)(=O)N(C)CC(=O)OCC(=O)N2CCN(C(=O)c3ccco3)CC2)cc1,active: 28.2 µM,
CCOC(=O)Cc1csc(NS(=O)(=O)c2ccc(F)cc2)n1,"inconclusive: 2.51 µM [inhibitor, partial curve, poor fit]",
CN(c1ccccc1)S(=O)(=O)c1cccc(C(=O)OCC(=O)NCc2ccco2)c1,,inactive: -28.1%
CN(CC(=O)Nc1c(Cl)cccc1Cl)C(=O)Cc1cccs1,"inconclusive: 79.4 µM [inhibitor, partial curve]",

Structure (SMILES),Potency,"activity change, negative = inhibition"
O=C(CNc1ccccc1-c1ccccc1)NCc1ccccc1,"inconclusive: 79.4 µM [inhibitor, partial curve, poor fit]",
CN1CCN(C(=O)CSc2nc(-c3cccs3)cc(-c3cccs3)c2C#N)CC1,"inconclusive: 25.1 µM [inhibitor, partial curve, poor fit]",
O=C(COc1ccc2ccccc2c1)Nc1cccc(C(=O)Nc2ccccc2C(=O)O)c1,active: 28.2 µM,
COc1ccccc1N1CCN(C(=O)c2ccc(CSc3ccccc3)cc2)CC1,"inconclusive: 44.7 µM [inhibitor, partial curve, poor fit]",
Cc1ccccc1NC(=O)c1c(C)oc2ccc(O)c(CN3CCCC3)c12,,inactive: -12.5%
COc1cc(OC)cc(C(=O)Nc2cccc(NC(=O)c3cccs3)c2)c1,"inconclusive: 39.8 µM [inhibitor, partial curve, poor fit]",
Oc1c(Br)cc(Br)cc1/C=N/c1nccs1,"inconclusive: 35.5 µM [inhibitor, partial curve, poor fit]",
Cn1c(N)c(C(=O)COC(=O)c2cc(-c3ccco3)nc3ccccc23)c(=O)n(C)c1=O,active: 7.94 µM,
N#CNc1nc(O)cc(=O)[nH]1,"inconclusive: 44.7 µM [inhibitor, partial curve, poor fit]",
COc1cccc(N2[C@@H](CC(C)=O)c3ccc(/C=C/C(C)=O)cc3S2(=O)=O)c1,"inconclusive: 79.4 µM [inhibitor, partial curve, poor fit]",
CCC(C)n1c(=O)c(C(=O)Nc2ccccc2S(N)(=O)=O)c(O)c2ccccc21 (stereo unspecified),"inconclusive: 79.4 µM [inhibitor, partial curve, poor fit]",
CCCCOc1ccc(C2C3CN(C(=O)OCC)CC=C3C(C#N)=C(N)C2(C#N)C#N)cc1OC (stereo unspecified),"inconclusive: 2 µM [inhibitor, partial curve, poor fit]",
COc1ccc2[nH]c(=O)c(CNc3ccccc3OC)cc2c1,"inconclusive: 28.2 µM [inhibitor, partial curve, poor fit]",
O=C1C2C3C=CC(C3)C2C(=O)N1c1ncn[nH]1 (stereo unspecified),"inconclusive: 89.1 µM [inhibitor, single point]",
Cc1ccc(NC(=O)Cn2cnc3nc4c(cc3c2=O)CCCC4)cc1Cl,,inactive: -16.6%
CC(C)(C)OC(=O)N1CCC(c2c(C(=O)NCc3ccco3)cnn2-c2ccccc2)CC1,,inactive: -7.44%
CCOC1=C/C(=C/c2c(N)n3nc(S(=O)(=O)CC)sc3nc2=O)C=CC1=O,"inconclusive: 22.4 µM [inhibitor, partial curve, poor fit]",
Cc1nc2oc3c(NCc4ccccc4)ncnc3c2c2c1COC(C)(C)C2,active: 14.1 µM,
O=C1N(Cc2cccc(C(F)(F)F)c2)c2ccccc2S(=O)(=O)N1c1cccc(Cl)c1,"inconclusive: 50.1 µM [inhibitor, partial curve, poor fit]",
N#Cc1c(NC(=O)CCC(=O)O)sc2c1CCCCC2,"inconclusive: 20 µM [inhibitor, full curve]",
O=C1NN(c2ccccc2)C(=O)/C1=C\c1cccc(OC(=O)c2cccs2)c1,active: 28.2 µM,
S=c1[nH]nc(-c2cc(-c3ccco3)[nH]n2)n1-c1cccc2ccccc12,"inconclusive: 100 µM [inhibitor, single point]",

Structure (SMILES),Potency,"activity change, negative = inhibition"
Cc1ccc(C)c(CN2C(=O)C(C)Oc3ccc(C)cc32)c1 (stereo unspecified),"inconclusive: 89.1 µM [inhibitor, partial curve, poor fit]",
O=c1c(C(c2ccc(O)cc2)c2c(O)nc3n(c2=O)CCS3)c(O)nc2n1CCS2,active: 20 µM,
Cc1ccc(-n2nc(C)c3c(C(=O)NCc4ccc(F)cc4)cc(C)nc32)cc1,"inconclusive: 89.1 µM [inhibitor, partial curve, poor fit]",
O=c1c2cc(N3CCOCC3)ccc2[nH]c(=S)n1Cc1ccco1,active: 89.1 µM,
CCc1ccccc1NC(=O)CSC1=Nc2ccccc2C2=NC(Cc3ccccc3)C(=O)N12 (stereo unspecified),,inactive: -1.88%
CC(=O)Nc1cccc(NC(=O)CSc2ccc(-c3cccnc3)nn2)c1,"inconclusive: 28.2 µM [inhibitor, partial curve, poor fit]",
CN(CC(=O)Nc1ccccc1Cl)C(=O)COC(=O)c1ccc([N+](=O)[O-])s1,active: 79.4 µM,
Cc1ccc(Cn2ccn(CC(=O)Nc3c(C)cc(C)cc3C)c(=O)c2=O)cc1,"inconclusive: 100 µM [inhibitor, single point]",
Cc1nc2nc(NC(=O)C(C)(C)C)[nH]n2c(=O)c1Cc1ccccc1,,inactive: -14.3%
CNC(=O)NC(=O)COC(=O)c1ccc(-n2c(C)ccc2C)cc1,"inconclusive: 20 µM [inhibitor, full curve, poor fit]",
O=c1cc(C=NNc2ccc([N+](=O)[O-])cc2)[nH]c(=O)[nH]1,"inconclusive: 5.01 µM [inhibitor, partial curve, poor fit]",
CCOC(=O)c1cc2c(=O)n3ccccc3nc2n(CCOC)c1=NC(=O)C(C)(C)Oc1ccc(Cl)cc1,"inconclusive: 89.1 µM [inhibitor, partial curve, poor fit]",
Cc1ccccc1OCCN1C(=O)C(=O)c2cccc(C)c21,"inconclusive: 50.1 µM [inhibitor, partial curve, poor fit]",
CN(C)c1ccc(C=c2c3ccccc3n3c2cc(-c2ccccc2)[n+]3C)cc1,"inconclusive: 25.1 µM [inhibitor, partial curve, poor fit]",
CC(=O)N1CCc2cc(Br)cc(S(=O)(=O)N3CCC(C)CC3)c21,,inactive: -9.06%
Cc1nnc(SC(C)C(=O)NC2CCCCC2C)s1 (stereo unspecified),,inactive: 1.43%
COCCCNC(=O)CNC(=O)c1nn(-c2ccc(OC)c(Cl)c2)c(=O)c2ccccc12,"inconclusive: 50.1 µM [inhibitor, partial curve, poor fit]",
CCOC(=O)c1c(-c2ccco2)csc1NC(=O)COC(=O)c1cnc(C)cn1,active: 25.1 µM,
Cc1cc(C(=O)CCl)c(C)n1CC1COc2ccccc2O1 (stereo unspecified),"inconclusive: 79.4 µM [inhibitor, partial curve, poor fit]",
O=C(CCS(=O)(=O)c1ccc(Br)cc1)Nc1ccc(Cl)c(C(F)(F)F)c1,"inconclusive: 0.708 µM [inhibitor, full curve, poor fit]",
CC(=O)OCC1(O)CC23CCC4c5ccoc5CCC4(C)C2CCC1C3 (stereo unspecified),"inconclusive: 89.1 µM [inhibitor, single point]",
COC(=O)c1ccc(=O)c2nc3/c(=C/O)c(O)cc(=O)c3[nH]c12,active: 28.2 µM,
